Measurements reported in paper PMC4754773.
These are yes or no findings as the source states them, for the method shown. In cells and extracts the contact can be indirect. Some binding calls cover weakened binding; strength is not graded here.

By UniProt entry, the sequences of proteins in these tests, tags left out.
UniProt P17302: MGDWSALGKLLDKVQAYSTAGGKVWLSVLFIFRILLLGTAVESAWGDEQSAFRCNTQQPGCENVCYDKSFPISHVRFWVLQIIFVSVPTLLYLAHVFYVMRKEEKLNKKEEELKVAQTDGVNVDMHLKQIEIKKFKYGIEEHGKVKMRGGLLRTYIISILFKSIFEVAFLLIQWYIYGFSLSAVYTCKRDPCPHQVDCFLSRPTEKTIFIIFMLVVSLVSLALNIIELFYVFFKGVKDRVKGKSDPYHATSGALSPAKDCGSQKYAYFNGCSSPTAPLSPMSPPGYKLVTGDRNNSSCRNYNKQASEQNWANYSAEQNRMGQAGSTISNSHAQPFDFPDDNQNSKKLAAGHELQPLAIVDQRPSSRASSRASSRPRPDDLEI
UniProt O43823: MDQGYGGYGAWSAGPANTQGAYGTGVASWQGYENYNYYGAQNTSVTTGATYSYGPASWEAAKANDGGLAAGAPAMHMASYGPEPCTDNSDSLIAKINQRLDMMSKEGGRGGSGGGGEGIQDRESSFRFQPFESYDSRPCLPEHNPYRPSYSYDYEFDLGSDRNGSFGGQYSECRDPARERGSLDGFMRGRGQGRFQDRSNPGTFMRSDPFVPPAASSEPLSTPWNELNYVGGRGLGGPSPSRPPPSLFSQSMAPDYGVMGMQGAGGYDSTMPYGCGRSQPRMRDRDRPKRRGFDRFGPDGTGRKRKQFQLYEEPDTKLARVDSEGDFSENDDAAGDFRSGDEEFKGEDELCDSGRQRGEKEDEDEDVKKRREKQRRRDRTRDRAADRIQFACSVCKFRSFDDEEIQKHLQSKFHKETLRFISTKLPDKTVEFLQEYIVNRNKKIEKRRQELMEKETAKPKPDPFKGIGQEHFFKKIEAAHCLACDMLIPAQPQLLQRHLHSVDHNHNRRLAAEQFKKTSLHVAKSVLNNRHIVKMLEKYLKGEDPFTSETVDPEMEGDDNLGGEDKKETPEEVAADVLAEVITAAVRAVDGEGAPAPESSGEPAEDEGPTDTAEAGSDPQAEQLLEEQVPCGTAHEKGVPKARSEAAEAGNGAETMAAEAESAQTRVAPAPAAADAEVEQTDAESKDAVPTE

Tests used:
[1] = biological target: connexin 43 (human (endogenous in A549 and L-O2)) (UniProt P17302); experiment: co-IP; nuclear and cytoplasmic fractions of A549 and L-O2 cells treated 24 h with L-mimosine (G1), aphidicolin (S), nocodazole (G2) or colchicine (M); precipitated with anti-Cx43 antibody, blot with anti-AKAP95
[2] = biological target: connexin 43 (human (endogenous in A549 and L-O2)) (UniProt P17302); experiment: co-IP; A549 fractions Cytoplasm1 (with nuclear membrane proteins), Nucleus1 and Nucleus2; 300 ug of each precipitated with 3 ug anti-Cx43 antibody, blot with anti-AKAP95 and anti-Cx43
[3] = biological target: connexin 43 (human (endogenous in A549 and L-O2)) (UniProt P17302); experiment: co-IP; total protein of A549 cells (control, 20 uM H89 or 20 uM Forskolin for 24 h; lysate also with or without alkaline phosphatase at 37 C for 1 h); precipitated with anti-Cx43 antibody, protein A/G agarose, blot with anti-Cx43 and anti-AKAP95
[4] = biological target: connexin 43 (human (endogenous in A549 and L-O2)) (UniProt P17302); experiment: condition: only cytoplasmic fraction without nuclear membrane proteins (Cytoplasm2); co-IP; A549 fraction Cytoplasm2 (made without CEB-B solution, no nuclear membrane proteins); 300 ug precipitated with 3 ug anti-Cx43 antibody, blot with anti-AKAP95 and anti-Cx43
[5] = biological target: connexin 43 (human (endogenous in A549 and L-O2)) (UniProt P17302); experiment: proximity ligation; fixed A549 cells, antibodies against Cx43 and AKAP8, Duolink PLA probes, confocal microscopy; lamin B1 marks the nuclear membrane; negative control with PBS instead of the Cx43 antibody

binding [1]: binds | binding [2]: binds | binding [3]: binds | binding [4]: no binding | binding [5]: binds
Substance: A-kinase anchoring protein 95 (from UniProt O43823 1-692)
